Measured values: ChEMBL document CHEMBL4888484, “Replenishing the malaria drug discovery pipeline: Screening and hit evaluation of the MMV Hit Generation Library 1 (HGL1) against asexual blood stage Plasmodium falciparum ,using a nano luciferase reporter read-out” (2022)
About 540 (0.36%) of roughly 150,000 compounds showed an effect of 50% or more. The list shows a part of the results.

System: Plasmodium falciparum
Test: Primary screen in NF54 nanoGlo assay, in single point, at 2uM, 72h; a lower Z score goes with more inhibition
Type: functional, Erythrocyte
Conditions: timepoint 72 hour

Row | Compound | % Inhibition [%] | Z score
1 | CC1(C)CC(NC(=O)C2CC(C(c3ccccc3)c3ccccc3)=NO2)CCO1 (centres undefined) | -13 | 1.73
2 | CCc1nnc(N2CCN(C)[C@@]3(CCNC(=O)CC3)C2)s1 | -13 | 1.43
3 | CCCc1cc(C(=O)N2CCC([C@]3(CCc4ccccc4)NC(=O)N(CCN(C)C)C3=O)CC2)no1 | -9 | 1.8
4 | CCc1c(C)nc2nc(-c3ccco3)nn2c1Nc1ccc(Cl)cc1 | -4 | 0.55
5 | CC(=O)N1CCN(C(=O)CN2C[C@@H](c3ccccc3Cl)OCC2(C)C)CC1 | -7 | 1.34
6 | O=C(NC[C@@H]1COc2ccccc2C1)N1CCCC1 | -11 | 1.9
7 | CC(=O)NC1(C(=O)N2CCN(c3ccncc3Cl)CC2)CCCCC1 | -4 | 0.42
8 | O=C(CN1C(=O)[C@@H]2CCCN2C(=O)c2ccccc21)NCC1CCCO1 (some centres undefined) | -8 | 0.91
9 | CC(C)Cn1ccc2c(NC(=O)c3nn(C)c(=O)c4ccccc34)cccc21 | -8 | 1.01
10 | CCN(CC)c1nc(C)nc2c1sc(=S)n2-c1ccccc1 | -8 | 1.09
11 | CC(C)(CN)c1nc(Cn2cnc3ccccc32)no1 | -13 | 1.86
12 | CCn1c(-c2cc(NC(=O)CCc3ccccc3)[nH]n2)c(C)c2ccccc21 | -1 | 0.07
13 | COC(=O)C[C@@H](C(=O)OC)c1ccno1 | -2 | 0.36
14 | Cn1nccc1S(=O)(=O)NCC(F)F | -5 | 0.64
15 | CN1C(=O)C(C)(C)c2cc(S(=O)(=O)N3CCC(C(=O)N4CCCCCC4)CC3)ccc21 | -7 | 1.35
16 | Cc1c(Cl)c(-c2nc(C(C)(C)C3=CCCCC3)no2)nn1C | 0 | -0.08
17 | CCCS(=O)(=O)[C@@H](C)C(=O)Nc1cccc(-c2nccc(C)n2)c1 | -3 | 0.46
18 | Cc1nnc(-c2ccccc2-c2cc(F)cc3c2O[C@@H](CN)C3)s1 | -11 | 1.1
19 | CCC1(O)CCC(NC(=O)N2CCc3ccccc3C(C)(C)C2)CC1 (centres undefined) | 10 | -1.24
20 | CC(C)[C@H](CCN(C)C(=O)c1cccc2c1OCC2)NC(=O)OC(C)(C)C | -7 | 1.05
21 | Cc1ccc(CN2CCCN(S(=O)(=O)N3CCOCC3)CC2)s1 | -9 | 1.76

Row | Compound | % Inhibition [%] | Z score
22 | COc1cc(-c2noc(-c3ccccc3)n2)ccc1OCC(=O)NC1CCCCC1 | -9 | 1.68
23 | Cc1ccccc1C1CC(C)N(CC(=O)NCc2ccccn2)C1 (centres undefined) | 4 | -0.53
24 | Cc1cc(C)c(Cn2cncn2)cc1CN1CCN2C(=O)CNC(=O)[C@@H]2C1 | 0 | 0.04
25 | Cc1cc(COc2nc(C)c(C#N)cc2Br)no1 | -3 | 0.52
26 | O=C1N[C@@H](c2cncs2)Nc2ncccc21 | -7 | 0.89
27 | O=C(NCCc1noc(C2CCC2)n1)[C@H]1CC12CCCCC2 | -9 | 1.88
28 | Cc1nc2ccc(C(=O)N3CCC[C@H](OC(C)C)C3)cc2n1C | 0 | 0.06
29 | C[C@H](NC(=O)N1CCN(S(=O)(=O)c2ccccc2Cl)CC1)C1CC1 | -4 | 0.44
30 | COC(=O)N1CCC(CNC(=O)c2cc(C)cs2)CC1 | -6 | 0.92
31 | CCS(=O)(=O)N1C[C@@H]2CN(Cc3cnn(C(C)C)c3)C[C@]2(c2nc(C)no2)C1 | -5 | 0.81
32 | Cc1nc2ccccc2nc1N1CCN(C2CC2)CC1 | -11 | 1.44
33 | O=C(Nc1nc(-c2ccccn2)cs1)[C@@H]1COc2ccccc2O1 | -5 | 0.44
34 | CCN(C(=O)c1ccc(-c2cc(C)c(C)cc2C)cc1)[C@H]1COC[C@@H]1O | -5 | 1.04
35 | O=C(NCc1cccnc1-c1ccco1)c1ccccc1C(=O)c1ccc(F)cc1 | -9 | 1.79
36 | CN1CCN(c2ccc(S(=O)(=O)N3CCCCC3)cc2N)CC1 | 31 | -3.51
37 | CCn1nc(Cc2ccc(OC)c(OC)c2)nc1-c1ccn2nnnc2c1 | 7 | -1.16
38 | C[C@H](NC(=O)CCc1ccncc1)c1ccccc1N(C)C | -11 | 1.73
39 | Cc1c[nH]c(CN(C)[C@H]2CN(C(=O)c3ccc(Cl)c(F)c3)C[C@@H]2O)n1 | -21 | 1.82
40 | Cn1c(N2CCC[C@H](C(=O)NCc3cccs3)C2)cc(=O)n(C)c1=O | -3 | 0.52
41 | CCC[C@H]1NC(=O)[C@@H](c2ccc(O)cc2)NC1=O | -15 | 1.53
42 | CC[C@H](C)N1C(=O)C(=O)N(C2CCCCC2)C1=O | -8 | 1.08
